Assay results: PMC6212790
Some of the results follow. At the low end of the ranking the order means little.

These sequences were tested against T1, GST-Rok-C97-191 (UniProt O34857) (assay: protein binding microarray). Settings: Rok is a gene silencer of Bacillus subtilis; high values mean tight binding; most listed sequences are background and not binding sites; double strand, one strand shown.
T1 sequence: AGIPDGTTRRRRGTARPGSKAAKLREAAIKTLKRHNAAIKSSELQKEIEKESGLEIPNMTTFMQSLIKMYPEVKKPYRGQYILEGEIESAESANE
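Further: rank score from −0.5 (least bound) to 0.5 (best bound).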

| Sequence | binding signal [E-score] |
| --- | --- |
| CATTTGAA | -0.0649 |
| ATGCAACC | 0.0833 |
| CACACCCC | -0.353 |
| CCGCTTAC | -0.0832 |
| CTTATATC | 0.117 |
| GCGGTTAC | -0.314 |
| AGCTGCCT | -0.175 |
| CAGCTTCC | -0.21 |
| GGGGTACA | 0.0482 |
| GCTGTATA | 0.0861 |
| ACCCAGCC | -0.0986 |
| GATTCCTA | 0.241 |
| CAGATAAC | 0.0674 |
| CACTCTGC | -0.276 |
| GATTTTTA | 0.162 |
| ACCCATAG | 0.084 |
| AGCGCAAG | -0.0906 |
| AGTAATAC | 0.274 |
| CGTCCGAG | -0.0967 |
| TAATGACA | 0.16 |
| ACCGTTAG | -0.0316 |
| AAATCAAA | 0.0333 |

| Sequence | binding signal [E-score] |
| --- | --- |
| AGACATAG | 0.0271 |
| CAGTGCGG | -0.157 |
| CAGAATGA | 0.0723 |
| CCCGCAGA | -0.219 |
| GGGGAGTA | -0.201 |
| CGGCGCTA | -0.109 |
| GCGTAACC | -0.145 |
| CCGACCGG | -0.318 |
| AAAGGTAA | -0.091 |
| ATGAGCAG | -0.0187 |
| CTCTAAAA | -0.112 |
| GCCGGGCC | -0.326 |
| CGCAGTAC | -0.122 |
| TCGCTCCA | -0.073 |
| CTACCGTC | 0.202 |
| AAACCTTG | -0.0382 |
| CACGGGTA | -0.0689 |
| AGAGAAAA | 0.026 |
| AGCTCACA | 0.0609 |
| TCATTACA | 0.15 |
| CCTGGAGA | -0.22 |
| CTAGCCGA | -0.229 |

| Sequence | binding signal [E-score] |
| --- | --- |
| TAGCTCCA | 0.119 |
| GAAGAGTA | 0.226 |
| ATGGTGAC | -0.0305 |
| ACTCGACC | -0.018 |
| AGATCGGG | -0.11 |
| CTTACATC | -0.011 |
| AACTATGT | 0.25 |
| GCACCGCA | -0.0601 |
| ACCCCTGG | -0.255 |
| CTCCCAAA | -0.207 |
| GGCAGCCA | -0.149 |
| ACTGGTAC | 0.211 |
| CTTGAACA | -0.143 |
| AACGGTAA | 0.154 |
| GGTCACAC | -0.261 |
| CGTGAACG | -0.0619 |
| GTAAAGCA | -0.0828 |
| CTGAGGGC | -0.382 |
| GCCAGCAC | -0.0682 |
| AATTTGCT | 0.107 |
| ATGTAAGG | -0.138 |
| TACATAGA | 0.224 |

| Sequence | binding signal [E-score] |
| --- | --- |
| GCACCTGC | -0.198 |
| CGTGCAAC | -0.129 |
| CATGATGG | -0.0573 |
| TTAAGCAA | 0.0224 |
| TCCGCCCA | -0.321 |
| ACCGTATA | 0.151 |
| ATATGTTA | 0.331 |
| GAGCCAAC | -0.253 |
| ACTGTAGG | 0.113 |
| GGTCCAAA | -0.186 |
| GCCGAGAA | -0.0598 |
| CCACGTTC | 0.0651 |
| AGCTTCCC | -0.028 |
| AGATGCAT | 0.0308 |
| CCCAAGTA | 0.0835 |
| CAGTAACA | 0.114 |
| CCCCTGCC | -0.348 |
| ACAGAGCT | -0.0478 |
| GCGTCAGA | -0.213 |
| ATAGGACC | 0.00808 |
